Among the data in patent publication US20250214977A1, “STAT6 INHIBITORS AND USES THEREOF” (Kymera Therapeutics, Inc., priority 2024, published 2025) are IC50 values, retold here.

The target of this assay is T1, biotinylated truncated STAT6 (123-632)-avi (Homo sapiens, UniProt P42226).
T1 sequence (P42226 123-632 limits assumed): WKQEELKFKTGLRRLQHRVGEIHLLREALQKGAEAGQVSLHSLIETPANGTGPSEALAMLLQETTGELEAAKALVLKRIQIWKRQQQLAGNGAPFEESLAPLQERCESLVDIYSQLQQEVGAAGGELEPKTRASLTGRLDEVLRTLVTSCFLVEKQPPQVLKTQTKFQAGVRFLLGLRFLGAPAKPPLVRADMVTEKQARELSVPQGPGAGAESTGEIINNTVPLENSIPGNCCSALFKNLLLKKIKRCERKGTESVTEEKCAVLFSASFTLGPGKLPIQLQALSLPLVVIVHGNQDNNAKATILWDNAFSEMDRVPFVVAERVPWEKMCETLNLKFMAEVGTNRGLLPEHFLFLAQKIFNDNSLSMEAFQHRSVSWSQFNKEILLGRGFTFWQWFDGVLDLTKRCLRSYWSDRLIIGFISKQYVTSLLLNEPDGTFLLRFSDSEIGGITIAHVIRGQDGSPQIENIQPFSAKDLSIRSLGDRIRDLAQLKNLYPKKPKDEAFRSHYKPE
The experiment in a line: Homogenous Time-Resolved Fluorescence (HTRF) binding assay. The note with it: 0.15 nM biotinylated truncated STAT6 (123-632)-avi, 20 nM fluorescein-labeled probe.

A value given as a limit tells only on which side of the number the result lay.

Consider `CN(C)C(=O)c1ccc2[nH]c(C3=CCCN(C(=O)CCn4ccnn4)C3)cc2c1` [Example I-1673], for which the half-maximal inhibitory concentration (IC50) (30 minutes room temperature) was in the range of 100 to 1000 nM.

Under “30 minutes room temperature”, `CN(C)C(=O)c1cc2ccc(C3=CCCN(C(=O)Cc4c[nH]nn4)C3)cc2[nH]1` [Example I-1674] showed an IC50 of 10000 to 100000 nM.

Turning to `CN(C)C(=O)c1cc2cc(C3=CCCN(C(=O)CCn4ccnn4)C3)cc(-c3ccccc3)c2o1` [Example I-1675], the IC50 (30 minutes room temperature) was less than 100 nM.

Turning to `CN(C)C(=O)c1cc2c(-c3cccnc3)cc(C3=CCCN(C(=O)CCn4ccnn4)C3)cc2[nH]1` [Example I-1677], the IC50 (30 minutes room temperature) was less than 100 nM.

For the setting “30 minutes room temperature”, `CN(C)C(=O)c1cc2c(-c3ccccc3)cc(C3=CCCN(C(=O)CCn4ccnn4)C3)cc2[nH]1` [Example I-1678] displayed an IC50 of less than 100 nM.

On to `CN(C)C(=O)c1cc2c(-c3ccccc3Cl)cc(C3=CCCN(C(=O)CCn4ccnn4)C3)cc2[nH]1` [Example I-1679], for which the IC50 (30 minutes room temperature) is less than 100 nM.

With `O=C(CCn1ccnn1)N1CCC=C(c2ccc3cc(-c4ccccn4)oc3c2)C1` [Example I-1681], the IC50 (30 minutes room temperature) is 1000 to 10000 nM.

`O=C(CCn1ccnn1)N1CCC=C(c2ccc3oc(-n4ccccc4=O)cc3c2)C1` [Example I-1682] had a half-inhibitory concentration (IC50) (30 minutes room temperature) of 100 to 1000 nM.

Take `CN(C)C(=O)c1ccc2oc(C3=CCCN(C(=O)CCn4ccnn4)C3)cc2c1` [Example I-1683]: the IC50 (30 minutes room temperature) was 1000 to 10000 nM.

In turn, `CN(C)C(=O)c1cc2ccc(C3=CCCN(C(=O)C4CCC(C(=O)N5CCC=C(c6ccc7cc(C(=O)N(C)C)[nH]c7c6)C5)C4)C3)cc2[nH]1` (stereo not drawn) [Example I-1684] came in with a concentration for half-maximal inhibition (IC50) (30 minutes room temperature) of 1000 to 10000 nM.

`CN(C)C(=O)c1cc2ccc(C3=CCCN(C(=O)CCn4ccnn4)C3)cc2[nH]1` [Example I-1685] registered an IC50 (30 minutes room temperature) of less than 100 nM.

Regarding “(1R)-3-[4-(4-ethyl-3-pyridyl)-7-fluoro-2-[4-(5-fluoro-3-methoxy-2-pyridyl)piperazine-1-carbonyl]-1H-indol-6-yl]cyclohex-3-ene-1-carboxylic acid [Example I-810]”, for the setting “30 minutes at room temperature”, the IC50 is less than 100 nM.

Regarding “(1S)-3-[4-(4-ethyl-3-pyridyl)-7-fluoro-2-[4-(5-fluoro-3-methoxy-2-pyridyl)piperazine-1-carbonyl]-1H-indol-6-yl]cyclohex-3-ene-1-carboxylic acid [Example I-809]”, the IC50 (30 minutes at room temperature) is less than 100 nM.

“(R)-1-(3-(7-fluoro-2-(4-(5-fluoro-3-methoxypyridin-2-yl)piperazine-1-carbonyl)-4-(1-methylpyrrolidin-3-yl)-1H-indol-6-yl)-5,6-dihydropyridin-1(2H)-yl)-3-(1H-1,2,3-triazol-1-yl)propan-1-one [Example I-812]” returned an IC50 (30 minutes at room temperature) of less than 100 nM.

The compound “(R)-5-(1-(2-formyl-1,2,3,4-tetrahydroisoquinoline-3-carbonyl)-1,2,5,6-tetrahydropyridin-3-yl)-7-(2-methoxyphenyl)-N,N-dimethylbenzofuran-2-carboxamide [Example I-804]” gave an IC50 (30 minutes at room temperature) of less than 100 nM.

Where the note is “30 minutes at room temperature”, “(S)-1-(5-(7-fluoro-2-(4-(5-fluoro-3-methoxypyridin-2-yl)piperazine-1-carbonyl)-4-(1-methylpyrrolidin-3-yl)-1H-indol-6-yl)-3,6-dihydropyridin-1(2H)-yl)-3-(1H-1,2,3-triazol-1-yl)propan-1-one [Example I-811]” had an IC50 of less than 100 nM.

Consider “(S)-5-(1-(2-formyl-1,2,3,4-tetrahydroisoquinoline-3-carbonyl)-1,2,5,6-tetrahydropyridin-3-yl)-7-(2-methoxyphenyl)-N,N-dimethylbenzofuran-2-carboxamide [Example I-805]”, for which the IC50 (30 minutes at room temperature) is less than 100 nM.

Where the note is “30 minutes at room temperature”, “Methyl 5-(3-(5-(2-(dimethylcarbamoyl)benzofuran-5-yl)-1,2,3,6-tetrahydropyridine-1-carbonyl)-2-formyl-1,2,3,4-tetrahydroisoquinolin-5-yl)pent-4-ynoate [Example I-802]” registered a half-maximal inhibitory concentration (IC50) of 100 to 1000 nM.
